From ChEMBL document CHEMBL4888484, “Replenishing the malaria drug discovery pipeline: Screening and hit evaluation of the MMV Hit Generation Library 1 (HGL1) against asexual blood stage Plasmodium falciparum ,using a nano luciferase reporter read-out” (2022)
Where “and” joins values, the source holds several entries; their conditions need not be identical. Identical values can stand only once. In all, about 150,000 compounds went through this assay and about 540 (0.36%) showed an effect of 50% or more. Some of the results follow.

Tested on: Plasmodium falciparum
Test: Primary screen in NF54 nanoGlo assay, in single point, at 2uM, 72h; a lower Z score goes with more inhibition
Assay type: functional, Erythrocyte
Settings: timepoint 72 hour

Compound	% Inhibition [%]	Z score	% Inhibition (2 µM)	Z score (2 µM)
O=C(N[C@H]1CCNC1)c1ccc(-c2ccc(Cl)cn2)cc1	5	-0.79	–	–
CCOC(=O)Cc1nnc([C@H](C)NC2CCCCCCC2)[nH]1	-1	0.13	–	–
O=C(NC[C@@H](CO)Cc1ccc(Cl)cc1)c1cncnc1C1CC1	35	-3.99	–	–
CC(=O)Nc1cccc(-n2ccnc2-c2ccnc(C(C)C)n2)c1	-12	1.13	–	–
Cc1nc(C)c2c(n1)O[C@@H](Cc1ccc(C(N)=O)cc1)C2	-8	1.21	–	–
O=S(=O)(NC1(c2nnc[nH]2)CCC1)c1ccc(OC2CC2)cc1	-4	0.68	–	–
CCC1(C)COC2(OC1)C(=O)N(CN1CCOCC1)c1ccccc12 (stereo not given)	-9	1	–	–
O=C(CCc1cccnc1)Nc1nc(C2CC2)no1	10	-1.36	–	–
C[C@H]1c2cccn2CCN1CC(=O)N(C)c1ccccc1	-5	0.41	–	–
O=C(Nc1nc2n(n1)CCCC2)c1cc(C2CC2)[nH]n1	-1	0.1	–	–
Cc1ccc(-n2c(-c3sc(Nc4ccccc4)nc3C)nc3ccccc3c2=O)cc1	-7	0.94	–	–
CCC(CC)NC(=O)Cn1cc(C(F)(F)F)ccc1=O	-11	1.32	–	–
COc1ccc(-c2cc(C(=O)N3CCN(c4ccccc4OC)CC3)n(-c3ccc(Cl)cc3)n2)c(OC)c1	-9	0.95	–	–
Cc1cc(NCc2cc(C)on2)nc(Nc2cccc(O)c2)n1	-12	2.36	–	–
Cc1csc(N(C)C(=O)c2cnn(CC(=O)NC3CCCCC3)c2)n1	3	-0.32	–	–
Cc1cccc(C(=O)N2CCC3(CC2)C[C@H]2C(=O)NCCN2C3)c1	-8	1.54	–	–
COc1cc(NC(=O)C2CCOCC2)cc(-n2cnnn2)c1	-5	0.94	–	–
Cc1cc(N2CC[C@@]3(CCCN(CCCc4ccccc4)C3)C2)nc(N)n1	23	-3.77	–	–
NC(=O)c1cncc(NCc2cccnc2Oc2ccc(F)c(F)c2)n1	-8	1.18	–	–
COCC(C)(C)NC(=O)C[C@@H]1C[C@H]1c1ccccc1	-29	3.43	–	–
CC[C@H]1CN(CCNC(=O)c2c(C)c(=O)[nH]c3ccccc23)CCO1	-12	1.16	–	–
CC1C(c2ccccc2)NC(c2ccccc2)CC1(O)Cc1ccccc1 (stereo not given)	–	–	-15% and -26%	1.94 and 3.04

Compound	% Inhibition [%]	Z score	% Inhibition (2 µM)	Z score (2 µM)
C[C@H](c1ccccc1)N(CC(N)=O)Cc1cn2cccnc2n1	-11	1.42	–	–
Cc1cc(C)c(C#N)c(N[C@@H]2C[C@H]3C(=O)N(C)CC(=O)N3C2)n1	-11	2.24	–	–
OCC1CCCCN1c1cc(N2CCCC3(C2)OCc2ccccc23)ncn1 (stereo not given)	0	0.07	–	–
COc1ccc([C@H](C)NC(=O)NCc2cccc(NC(=O)c3ccco3)c2)cc1F	-5	0.43	–	–
Cc1cnc(C(=O)Nc2ccc3oc(C)nc3c2)cn1	-8	1.2	–	–
Cc1nc(-c2ccccc2)ncc1C(=O)NCCN1CCCC[C@@H]1CO	-8	1.12	–	–
Cc1ccc(C(=O)NC[C@H](C)COCc2ccccc2)c(=O)[nH]1	1	-0.19	–	–
O=C1CN(C(=O)c2ccc([C@H]3CCCOC3)cc2)c2ccccc2N1	-15	1.61	–	–
Cc1[nH]ccc1C(=O)N1CCCC(C(C)NC(=O)OC(C)(C)C)C1 (stereo not given)	-11	1.15	–	–
O=C1C(=O)N(C2CCN(C(=O)c3cnccn3)CC2)CCN1Cc1ccc(F)cc1	-7	0.93	–	–
COc1cccc(N2CCN(C(=O)c3cc4n(n3)C[C@@H](c3ccc(Cl)cc3)OC4)CC2)c1	-9	1.47	–	–
COc1ccccc1C(=O)N1CCCCC[C@@H]1CN1CCc2ccccc2C1	4	-0.62	–	–
CCN(C)C(=O)c1ccc(-c2cc3ccccc3n2C)nc1	-6	1.05	–	–
COC(=O)c1c(NC(=O)Cc2ccccc2)c2cc(NCC(C)C)cnc2n1CC(C)C	-12	1.42	–	–
O=C(CC1CCCC1)Nc1ccccc1OC[C@H]1CCCO1	-18	2.86	–	–
CCc1ccnc(CNC(=O)N2CCO[C@H](c3nc(C)cs3)C2)c1	-5	0.48	–	–
CCOc1ccc(-n2ccn3c(C[C@@H](C)CC(=O)Nc4ccc(C)c(C)c4)nnc3c2=O)cc1	-3	0.37	–	–
Cc1ccc(C(=O)N[C@H]2CCN(Cc3cccnc3)C[C@@H]2O)cc1F	-7	0.97	–	–
CCCS(=O)(=O)N1CC(Oc2ccc(-c3noc(COC)n3)cc2)C1	-14	2.73	–	–
CS(=O)(=O)c1cccc(C(=O)Nc2ncnc3sccc23)c1	-26	3.3	–	–
CC(C)c1nnc(CN(C)c2ccccc2F)o1	-1	0.08	–	–
COc1cccc(C2Nc3c(C)cc(C)cc3[C@H]3OCCC[C@@H]23)c1OC (stereo not given in full)	-10	1.67	–	–

Compound	% Inhibition [%]	Z score	% Inhibition (2 µM)	Z score (2 µM)
O=C(O)c1cc(Cn2cc(Cl)cn2)cs1	-2	0.37	–	–
CC(C)CN(Cc1cccnc1)C(=O)c1cc2ncc(CCO)cn2n1	2	-0.35	–	–
CC[C@@H](c1ccccn1)N(C)Cc1cc(C(C)C)on1	-11	1.2	–	–
Cc1ccc([C@H]2CN(S(C)(=O)=O)C[C@@H]2N(C)C)o1	-27	5.1	–	–
NC(=O)c1c(NC(=O)C2CCCCC2)sc2c1CCC2	-14	1.74	–	–
Cc1nn(CCO)cc1CN(C)Cc1csc(-c2ccccc2)n1	-8	1.23	–	–
COC1CCCC(CC(=O)N2CCS(=O)(=O)CC2)C1 (stereo not given)	3	-0.57	–	–
CCC(CC)(CN(CC(CC)(CC)OC)C(=O)c1cccc(=O)[nH]1)OC	-9	1.6	–	–
CC[C@@H](CO)NCc1ccccc1OC(C)C	-4	0.55	–	–
Cc1ccc(-c2ccc(C(=O)NC3(C(N)=O)CCCC3)cc2)nn1	-13	1.31	–	–
CCc1ccccc1S(=O)(=O)N1CC2CC1CS2(=O)=O (stereo not given)	-14	1.67	–	–
C[C@H](NC(=O)NC(c1cccs1)c1cccs1)C(=O)N(C)C	-1	0.11	–	–
CN(C)C(=O)[C@@H]1CN(c2ncnc3[nH]ccc23)CCO1	-6	0.84	–	–
COc1ccc(CCS(=O)(=O)N2CCO[C@H](c3ccccc3)C2)cc1	-7	1.08	–	–
Cc1ccc2c(c1)c1c(n2C[C@H]2COC(C)(C)O2)C(=O)CCC1	8	-1.48	–	–
Cn1cc(CNC(=O)c2ccc(Nc3ccncc3)cc2)cn1	2	-0.41	–	–
Cc1nn(C)c(C(=O)NCCc2cnn[nH]2)c1Cl	-15	1.99	–	–
O=c1c2sccc2n(Cc2nc(-c3ccccc3)no2)c(=O)n1CCc1ccccc1	-4	0.47	–	–
O=C(C[C@@H](Cn1cnnn1)c1ccc(Cl)cc1)NCc1ccccc1F	-3	0.47	–	–
COc1ccc(CN(CCc2c[nH]c3ccccc23)C(=O)CN(CC(C)C)C(=O)Nc2ccc(F)c(Cl)c2)cc1OC	1	-0.24	–	–
Cc1cc(=O)[nH]c(-n2ncc(C(=O)Nc3ccc4c(c3)OCCO4)c2C)n1	9	-1.14	–	–
COc1ccc(C(=O)CCC(=O)N2CC[C@@](O)(c3ccccc3)C2)cc1	-17	1.58	–	–

Compound	% Inhibition [%]	Z score	% Inhibition (2 µM)	Z score (2 µM)
CCc1nc(N2CCC(C(=O)NCC(C)C)CC2)c2c(C)scc2n1	-3	0.45	–	–
CN(CCC(=O)Nc1ccccc1C#N)c1ccccc1	-3	0.55	–	–
c1coc(-c2nc(Cn3ccnc3[C@H]3CCOC3)no2)c1	-15	3.1	–	–
O=C(NCC(=O)N1CCn2nccc2C1)c1ccccc1	-8	0.88	–	–
CCOC(=O)CN(CC(F)(F)F)C(=O)c1cc2ccccn2c1	5	-0.58	–	–
COCCOCC(=O)N1CCCCC[C@H]1c1nnc(-c2ccccc2)o1	-13	2.4	–	–
Cc1cc(C)cc(Nc2c(C(=O)N3CCC(C)CC3)cnc3nc(C)ccc23)c1	-1	0.22	–	–
CC(=O)Nc1sc2c(c1CN1CCN(C)CC1)CCCC2	-4	0.56	–	–
CCN1CC2(CCN(c3nccc(NC)n3)CC2)C[C@@H](c2ccccc2)C1=O	6	-0.88	–	–
CCOC1CC(N(C)S(=O)(=O)c2cnn(C)c2)C12CCCC2 (stereo not given)	-11	0.9	–	–
CC(=O)N(C)CC(=O)OC1CCCC(C)C1 (stereo not given)	-11	1.54	–	–
Cc1nc(O)cc(CNC(=O)CCc2scnc2C)n1	-5	0.98	–	–
Cc1c(F)cc(Cl)c2c1CCCN2C(=O)c1ccc(=O)n(C)n1	4	-0.54	–	–
CCc1nc(N)sc1C(=O)N1CCN(c2ccc(Cl)c(Cl)c2)CC1	-23	2.66	–	–
CCc1ccc(/N=C(\NCc2ccncc2)NC(=O)c2cccc(Cl)c2)cc1	-8	1.35	–	–
Cc1cnn(-c2ccncc2NC(=O)[C@H]2CCOC3(CCCC3)C2)c1	-13	1.65	–	–
Cc1c(NC(=O)CN2CCCCC2=O)cccc1-c1nncn1C	5	-0.87	–	–
CC1CN(C(=O)COCC(F)(F)F)CC(C)O1 (stereo not given)	-5	0.69	–	–
CCn1ccnc1CNCC1CCOC1c1c(C)nn(C)c1C (stereo not given)	-4	0.36	–	–
